Experimental data taken from the supplement of paper PMC7125110.
± gives the standard error. Variants at the background level are over-represented here.

B1: glmS ribozyme (parent)
chain: AUAAAAGCGCCAGAACUACAGAAAUGUAGUUGACGAGGAGGAGGUUUAUCGAAUUUUCGGCGGAUGCCUCCAAA

Variants of: B1
Assay: self-cleavage kobs at 2500 uM GlcN6P; higher = faster cleavage; RNA array
Details: with glucosamine-6-phosphate
Summary of the method: (§1)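 E. coli RNA polymerase transcribed barcoded ribozyme variants in situ on sequenced MiSeq chips, which were tracked via a hybridised Cy3 probe at 37 °C. Tiles were imaged over ~14 h after glucosamine-6-phosphate (40 μM to 10 mM) in HEPES/KCl/Mg(OAc)2 buffer was flowed in. Normalised per-tile medians were fit to one- or two-exponential decays for kobs, and kcat and KM came from weighted Michaelis–Menten fits.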

Going from A15U G37C U56C to A15U G43U A53U C68U, the “self-cleavage kobs at 2500 uM GlcN6P” value rises from < 1e-05 s⁻¹ to 8.35e-05 ± 3.5e-05 s⁻¹.

Going from A15U U30A A48U U49C to A15U U45A U65G, the “self-cleavage kobs at 2500 uM GlcN6P” value rises from < 1e-05 s⁻¹ to 0.00134 ± 0.00059 s⁻¹.

C16A A48U C58U and C16A G32U G43U C61G cannot be ordered by “self-cleavage kobs at 2500 uM GlcN6P” value: < 1e-05 s⁻¹ for the first, < 1e-05 s⁻¹ for the second.

First: C16A G32U U55G
Second: C16A G35A G37C G66A
The “self-cleavage kobs at 2500 uM GlcN6P” value of the first is higher: 0.000117 ± 3.5e-05 s⁻¹ for the first, < 1e-05 s⁻¹ for the second.

First: C16G C50G
Second: C16G C50U G59A A64G
The “self-cleavage kobs at 2500 uM GlcN6P” value of the first is higher: 6.05e-05 ± 1.4e-05 s⁻¹ for the first, < 1e-05 s⁻¹ for the second.

C16G G37U G44U U47A G51C C68A and C16G G43C C68A cannot be ordered by “self-cleavage kobs at 2500 uM GlcN6P” value: < 1e-05 s⁻¹ for the first, < 1e-05 s⁻¹ for the second.

C16G G44A C70G and C16U A42C U49G U55G G59C cannot be ordered by “self-cleavage kobs at 2500 uM GlcN6P” value: < 1e-05 s⁻¹ for the first, < 1e-05 s⁻¹ for the second.

C16U A42G G43U and C16U A42G G62U cannot be ordered by “self-cleavage kobs at 2500 uM GlcN6P” value: < 1e-05 s⁻¹ for the first, < 1e-05 s⁻¹ for the second.

Compared with C16U G32U U46G, C16U G35U U46A U57A is lower in “self-cleavage kobs at 2500 uM GlcN6P” value: 6.51e-05 ± 2.5e-05 s⁻¹ for the first, < 1e-05 s⁻¹ for the second.

C16U G40U U49C C50G C68U C71A and C16U G62U C71U cannot be ordered by “self-cleavage kobs at 2500 uM GlcN6P” value: < 1e-05 s⁻¹ for the first, < 1e-05 s⁻¹ for the second.

First: C16U U30C G32U G35U U47G
Second: C16U U30G G32A C68U
The “self-cleavage kobs at 2500 uM GlcN6P” value of the first is lower: < 1e-05 s⁻¹ for the first, 7.75e-05 ± 3.2e-05 s⁻¹ for the second.

Going from C16U U49G G59C C68U to A20C A48G, the “self-cleavage kobs at 2500 uM GlcN6P” value rises from < 1e-05 s⁻¹ to 0.000134 ± 2.6e-05 s⁻¹.

G26U G32A G63A C71U and G26U G44U C58G C68U cannot be ordered by “self-cleavage kobs at 2500 uM GlcN6P” value: < 1e-05 s⁻¹ for the first, < 1e-05 s⁻¹ for the second.

G29A A36G U49G C70U and G29A A42U G44U C68G cannot be ordered by “self-cleavage kobs at 2500 uM GlcN6P” value: < 1e-05 s⁻¹ for the first, < 1e-05 s⁻¹ for the second.

G29A G32U A33C G40C and G29A G41U G62C cannot be ordered by “self-cleavage kobs at 2500 uM GlcN6P” value: < 1e-05 s⁻¹ for the first, < 1e-05 s⁻¹ for the second.

G29A G43U U46A G51A and G29C G37A G43C U69A cannot be ordered by “self-cleavage kobs at 2500 uM GlcN6P” value: < 1e-05 s⁻¹ for the first, < 1e-05 s⁻¹ for the second.

G29C G37U G62U and G29C G41A C71G cannot be ordered by “self-cleavage kobs at 2500 uM GlcN6P” value: < 1e-05 s⁻¹ for the first, < 1e-05 s⁻¹ for the second.

First: G29C G66U
Second: G29U A48C C58A
The “self-cleavage kobs at 2500 uM GlcN6P” value of the first is higher: 7.9e-05 ± 2e-05 s⁻¹ for the first, < 1e-05 s⁻¹ for the second.

G29U A52C C71A and G29U C61U G66U cannot be ordered by “self-cleavage kobs at 2500 uM GlcN6P” value: < 1e-05 s⁻¹ for the first, < 1e-05 s⁻¹ for the second.

G29U G32C U47C C67G and G29U G41U G51C U55C U56G cannot be ordered by “self-cleavage kobs at 2500 uM GlcN6P” value: < 1e-05 s⁻¹ for the first, < 1e-05 s⁻¹ for the second.

G29U G44C C61G and U30A A36C G37A G40U cannot be ordered by “self-cleavage kobs at 2500 uM GlcN6P” value: < 1e-05 s⁻¹ for the first, < 1e-05 s⁻¹ for the second.

U30A A36U C71A and U30A G32U G44A U49G cannot be ordered by “self-cleavage kobs at 2500 uM GlcN6P” value: < 1e-05 s⁻¹ for the first, < 1e-05 s⁻¹ for the second.

U30A U46G A53U and U30A U47C are within error of each other in “self-cleavage kobs at 2500 uM GlcN6P” value: 0.000335 ± 9.7e-05 s⁻¹ for the first, 0.000476 ± 9.7e-05 s⁻¹ for the second.

Compared with U30A U56A G60U, U30A U65C is higher in “self-cleavage kobs at 2500 uM GlcN6P” value: < 1e-05 s⁻¹ for the first, 4.68e-05 ± 1.5e-05 s⁻¹ for the second.

First: U30C C68A
Second: U30C G35C G37C
The “self-cleavage kobs at 2500 uM GlcN6P” value of the first is higher: 3.62e-05 ± 1.1e-05 s⁻¹ for the first, < 1e-05 s⁻¹ for the second.

U30C G35U G51A A53U U56C and U30C G37C G38C C61U cannot be ordered by “self-cleavage kobs at 2500 uM GlcN6P” value: < 1e-05 s⁻¹ for the first, < 1e-05 s⁻¹ for the second.

U30C G41A A48C G62C C68G and U30C G41U A42C cannot be ordered by “self-cleavage kobs at 2500 uM GlcN6P” value: < 1e-05 s⁻¹ for the first, < 1e-05 s⁻¹ for the second.

U30C G44A G66U and U30C G60U C71G cannot be ordered by “self-cleavage kobs at 2500 uM GlcN6P” value: < 1e-05 s⁻¹ for the first, < 1e-05 s⁻¹ for the second.

First: U30G A53C U57A C61G C71U
Second: U31A A39U C70G
The “self-cleavage kobs at 2500 uM GlcN6P” value of the first is lower: < 1e-05 s⁻¹ for the first, 0.000232 ± 7.5e-05 s⁻¹ for the second.

U31A C34A C71U and U31C A39C C70A cannot be ordered by “self-cleavage kobs at 2500 uM GlcN6P” value: < 1e-05 s⁻¹ for the first, < 1e-05 s⁻¹ for the second.

U31C C50U A64U and U31C G35C G51C cannot be ordered by “self-cleavage kobs at 2500 uM GlcN6P” value: < 1e-05 s⁻¹ for the first, < 1e-05 s⁻¹ for the second.

U31C U46A G63C and U31G C34A U45G cannot be ordered by “self-cleavage kobs at 2500 uM GlcN6P” value: < 1e-05 s⁻¹ for the first, < 1e-05 s⁻¹ for the second.

U31G C34U A39G U54G G63C and U31G G37U U56G cannot be ordered by “self-cleavage kobs at 2500 uM GlcN6P” value: < 1e-05 s⁻¹ for the first, < 1e-05 s⁻¹ for the second.

U31G G44A A52C and U31G U45G U47G G51C A53C C61A U65C cannot be ordered by “self-cleavage kobs at 2500 uM GlcN6P” value: < 1e-05 s⁻¹ for the first, < 1e-05 s⁻¹ for the second.

Going from G32A A53U U56A C71U to G32A C50A A52U G60U G62U, the “self-cleavage kobs at 2500 uM GlcN6P” value falls from 4.22e-05 ± 1e-05 s⁻¹ to < 1e-05 s⁻¹.

G32A G41A U49G and G32C A33G U46C cannot be ordered by “self-cleavage kobs at 2500 uM GlcN6P” value: < 1e-05 s⁻¹ for the first, < 1e-05 s⁻¹ for the second.

G32C A39G G59A and G32U A33U G41U cannot be ordered by “self-cleavage kobs at 2500 uM GlcN6P” value: < 1e-05 s⁻¹ for the first, < 1e-05 s⁻¹ for the second.

Going from G32U A53C U55A to G32U G37C A52U A64U, the “self-cleavage kobs at 2500 uM GlcN6P” value falls from 5.38e-05 ± 1.8e-05 s⁻¹ to < 1e-05 s⁻¹.

In the case of A33C A36C U47A, the “self-cleavage kobs at 2500 uM GlcN6P” value is reported as < 1e-05 s⁻¹.

Variants of: B1
Assay: self-cleavage kobs at 10000 uM GlcN6P; higher = faster cleavage; RNA array
Details: with glucosamine-6-phosphate
Summary of the method: as §1

First: A15U G37C U56C
Second: C16A G32U U55G
The “self-cleavage kobs at 10000 uM GlcN6P” value of the first is lower: < 1e-05 s⁻¹ for the first, 0.000315 ± 4.6e-05 s⁻¹ for the second.

Going from C16G G43C C68A to C16U G32U U46G, the “self-cleavage kobs at 10000 uM GlcN6P” value rises from < 1e-05 s⁻¹ to 0.000138 ± 2.5e-05 s⁻¹.

Compared with C16U U30G G32A C68U, G29C G66U is 2.6-fold lower in “self-cleavage kobs at 10000 uM GlcN6P” value: 0.000157 ± 5.1e-05 s⁻¹ for the first, 5.98e-05 ± 1e-05 s⁻¹ for the second.

Going from U30A A36U C71A to U30A U47C, the “self-cleavage kobs at 10000 uM GlcN6P” value rises from < 1e-05 s⁻¹ to 0.000396 ± 9.1e-05 s⁻¹.

First: U30A U65C
Second: U30C G35U G51A A53U U56C
The “self-cleavage kobs at 10000 uM GlcN6P” value of the first is higher: 8.23e-05 ± 1.6e-05 s⁻¹ for the first, < 1e-05 s⁻¹ for the second.

U31G U45G U47G G51C A53C C61A U65C and G32C A39G G59A cannot be ordered by “self-cleavage kobs at 10000 uM GlcN6P” value: < 1e-05 s⁻¹ for the first, < 1e-05 s⁻¹ for the second.
